Residue numbers refer to the chain shown, from its start. Recombinant human monoclonal antibodies (heavy:light variable regions). ELISA EC50 on the named antigen, from 10 µg/ml down; IC50 / IC90 against spike pseudovirus on 293T-ACE2 cells, 48 h; lower = stronger. Calls: IC50 above 1,000 ng/ml = non-neutralizing; EC50 above 2,000 ng/ml = non-binder. The source prints 1000 for neutralization that was not reached; it is given as >1000 ng/ml. A few antibodies were first reported in earlier work of the same group.
B1: C2165 (protein)
chain 1: EVQLVESGGGLVKPGGSLRLSCAASGFTFSTYSMNWVRQAPGKGLEWVSSITGSSSLIYYADSVKGRFTVSRDNAKNSLYLQMNGLRVEDTAVYYCAREGFYCSGGGCRWFDPWGQGTLVTVSS
chain 2: EIVLTQSPATLSLSPGESATLSCRASESVSSYLAWYQQKPGQAPRLLIYDASNRATGIPARFSGSGSGTDFTLTISSLEPEDFAVYYCQHRSNWPPTFGGGTKVEIK
B2: C2160 (protein)
chain 1: EVQLVESGGGLVQPGRSLRLSCAASGFTFDDYAMHWVRQAPGKGLEWVSGISWNSGTIGYADSVKGRFTISRDNAKNSLYLQMNSLRAEDTALYYCAKDIRGPYDRTEEGAFDIWGQGTMVTVSS
chain 2: SYELTQPPSVSVAPGQTARITCGGNNIGSKSVHWYQQKPGQAPVLVVYDDSDRPSGIPERFSGSNSGNTATLTISRVEAGDEADYYCQVWDSTSDHRVFGGGTKLTVL
B3: C2209 (protein)
chain 1: EVQLVESGGGLVQPGRSLRLSCAASGFTFDDYAMHWVRQAPGKGLEWVSGISWNSGTIGYADSVKGRFTISRDNAKNSLYLQMNSLRAEDTALYYCAKDYCGGDCYSPTRGAGYGMDVWGQGTTVTVSS
chain 2: QSALTQPASVSGSPGQSITISCTGTSSDVGGYNYVSWYQQHPGKAPKLMIYDVSNRPSGVSNRFSGSKSGNTASLTISGLQAEDEADYYCSSYTSSSGVVFGGGTKLTVL
B4: C2025 (protein)
chain 1: EVQLVESGGGLIQPGGSLRLSCAASGFTVSSNYMSWVRQAPGKGLEWVSVIYSGGSTYYADSVKGRFTISRDNSKNTLYLQMNSLRAEDTAVYYCAREYGDWEWGQGTLVTVSS
chain 2: DIQMTQSPSSLSASVGDRVTITCQASQDISSYLNWYQLKPGKAPKLLIYDASNLETGVPSRFSGSGSGTDFTFTISSLQPEDIATYYCHQYDNLPRTFGQGTKLEIK
B5: C2220 (protein)
chain 1: B4 chain 1 with A23V, S53P, Y58F
chain 2: IRMTQSPSSLSASVGDRVTITCQASQDIRNYLNWYQQKPGKAPKLLIYDASNLETGVPSRFSGSGSGTDFTFTISSLQPEDIATYYCQQYDNLPRTFGQGTKLEIK
B6: C2026 (protein)
chain 1: QVQLVESGGGVVQPGGSLRLSCAASGFTFSSYGMHWVRQAPGKGLEWVAFIRYDGSNKYYADSVKGRFTISRDNSKNTLYLQMNSLRAEDTAVYYCAKPQYSYGYEEGIYFDYWGQGTLVTVSS
chain 2: SYELTQPPSVSVAPGQTARITCGGNNIGSKSVHWYQQKPGQAPVLVVYDDSDRPSGIPERFSGSNSGNTATLTISRVEAGDEADYYCQVWDSSSDHPGVFGGGTKLTVL
B7: C2164 (protein)
chain 1: VQLVESGGGVVQPGRSLRLSCAASGFTFSSYGMHWVRQAPGKGLEWVAVISYDGSNKYYGDSVKGRFTISRDNSKNTLYLQMNSLRAEDTAVYYCAKPIYSYGSGSYSYFDYWGQGTLVTVSS
chain 2: B5 chain 2 with R29S, R95Q
B8: C2232 (protein)
chain 1: EVQLVESGGGLIQPGGSLRLSCAASGLTVSSNYMSWVRQAPGKGLEWVSIIYSGGSTFYADSVKGRFTISRDNSKNTLYLQMNSLRAEDTAVYYCARDLQQLGGMDVWGQGTTVTVSS
chain 2: B5 chain 2 with R29S, Q88H, R95I, K102R
B9: C2233 (protein)
chain 1: EVQLVESGGGLIQPGGSLRLSCAASGFIVSSNYMNWVRQAPGKGLEWVSVIYSGGSTFYADSVKGRFTISRDNSKNTLYFQMNSLRAEDTAVYYCARFGGYELGGVDVWGQGTTVTVSS
chain 2: B5 chain 2 with R95I, K102R
B10: C2219 (protein)
chain 1: QVQLQESGPGLVRPSETLSLTCTVSGGSVFSTYSWLNWIRQPPGKGLEWIGHMYHTGTANYNPSLESRVTMSLDRSKNQMSLSLRSVTAADTAVYYCASGRDESKTGYWGQGTLVTVSS
chain 2: DIVMTQSPDSLSVSLGERATFNCKSSQTVLYSPNNKNYLAWFQQKPGQPPKLLIYWASLRDSGVPDRFSGSGSATDFTLTISSLQAEDVAVYFCQQYHSPPFTFGQGTKLEIK
B11: C2228 (protein)
chain 1: QVQLVQSGAEVRKPGASVKVSCKASGFTFISFAIHWVRQAPGQSLEWMGWINAGDGNTKYSQKFQGRVTITRHTSASTAYIELSSLRSEDTAVYYCARDFGGRESRGGAFDIWGQGTMVTVSS
chain 2: QSVLTQPPSVSEAPRQRVTISCSGSNSNIGNNVVNWYQQLPGKAPKLLIYYDDLLPSGVSDRFSGSKSGTSVSLVISGLQSEDEADYYCAAWDDSLNGYVFGTGTKVTVL
B12: C2221 (protein)
chain 1: EVQLVESGGGLVQPGGSLRLSCAASGFTVSSNYMTWVRQAPGKGLEWVSVIYSGGSTYYADSVKGRFTISRDNSKNTLYLQMNSLRAEDTAVYYCARDLEEKGAFDIWGQGTMVTVSS
chain 2: DIQLTQSPSFLSASVGDRVTITCRASQGISSYLAWYQQKPGKAPKLLIYAASTLQSGVPSRFSGSGSGTEFTLTISSLQPEDFATYYCQQLNSYPPYTFGQGTKLEIK
B13: C2231 (protein)
chain 1: EVQLVESGGGLVQPGGSLRLSCAASGFTFSSYWMSWVRQAPGKGLEWVANIKQDGSEKYYVDSVKGRFTISRDNAKNSLYLQMNSLRAEDTAVYYCARDRWLRGDMDVWGKGTTVTVSS
chain 2: NFMLTQPHSVSESPGKTVTISCTGSSGSIASNYVQWYQQRPGSAPTTVIYEDNQRPSGVPDRFSGSIDSSSNSASLTISGLKTEDEADYYCQSYDSSSRVFGGGTKLTVL
B14: C2028 (protein)
chain 1: EVQLLESGGALVQPGGSLRLSCAASGFTFIYSGMSWVRQAPGKGLEWVSAITGSGGNTYYADSVKGRFTISRDNSKNTLYLQLDSLRAEDTAIYYCAKTPMASPATRYDYWGQGSLVTVSS
chain 2: DIQMTQSPSALSASVGDRVTITCRASQNINDWLAWYQQKPGKAPKLLIYRASSLESGVPSRFSGSGSGREFTLTISSLQPDDFAAYYCQQYKSYPLTFGGGTKVEIK
B15: C2230 (protein)
chain 1: VQLVESGGGVVQPGRSLRLSCAASGFTFSSYGMHWVRQAPGKGLEWVAVISYDGSNKYYADSVKGRFTISRDNSKNTLYLQMNSLRAEDTAVYYCAKNFYSYGYQGYYFDYWGQGTLVTVSS
chain 2: IRMTQSPSSLSASVGDRVTITCQASQDISNYLNWYQQKPGKAPKLLIYDASNLETGVPSRFSGSGSGTDFTFTISSLQPEDIATYYCQQYDNLVTFGGGTKVEIK
B16: C2030 (protein)
chain 1: QVQLVQSGAEVKKPGASVKVSCKASGYTFTSYGISWVRQAPGQGLEWMGWISAYNGNTNYAQKLQGRVTMTTDTSTSTAYMELRSLRSDDTAVYYCARDRVLRFLGFDPWGQGTLVTVSS
chain 2: NFMLTQPHSVSESPGKTVTISCTGSSGSIASNYVQWYQQRPGSAPTTVIYEDNQRPSGVPDRFSGSIDSSSNSASLTISGLKTEDEADYYCQSYDSSNQGVVFGGGTKLTVL

Molecular target: SARS-CoV-2 Wuhan-Hu-1 spike pseudovirus
Assay: pseudovirus neutralization IC50; higher = weaker neutralization
Description: (§1)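 Single-round luciferase reporter pseudovirus mixed with antibody dilutions and put on 293T-ACE2 cells for 48 h; signal relative to no-antibody wells, four-parameter fit.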

| Binder | pseudovirus neutralization IC50 [µg/mL] |
| --- | --- |
| B1 | > 1 |
| B2 | 0.227 |
| B3 | 0.0445 |
| B4 | 0.0475 |
| B5 | 0.0239 |
| B6 | 0.636 |
| B7 | > 1 |
| B8 | 0.00983 |
| B9 | 0.00985 |
| B10 | 0.0288 |
| B11 | 0.111 |
| B12 | 0.0411 |
| B13 | > 1 |
| B14 | > 1 |
| B15 | > 1 |
| B16 | 0.114 |

Molecular target: SARS-CoV-2 Wuhan-Hu-1 spike pseudovirus
Assay: pseudovirus neutralization IC90; higher = weaker neutralization
Description: as §1

| Binder | pseudovirus neutralization IC90 [µg/mL] |
| --- | --- |
| B1 | > 1 |
| B2 | > 1 |
| B3 | > 1 |
| B4 | 0.347 |
| B5 | 0.182 |
| B6 | > 1 |
| B7 | > 1 |
| B8 | 0.0876 |
| B9 | 0.0648 |
| B10 | 0.262 |
| B11 | 0.838 |
| B12 | 0.369 |
| B13 | > 1 |
| B14 | > 1 |
| B15 | > 1 |
| B16 | > 1 |

Molecular target: SARS-CoV-2 Wuhan-Hu-1 spike receptor-binding domain
Assay: ELISA binding EC50; higher = weaker binding; ELISA of recombinant human antibody on coated antigen, from 10 µg/ml in fourfold dilutions; four-parameter fit.

| Binder | ELISA binding EC50 [µg/mL] |
| --- | --- |
| B1 | 0.452 |
| B2 | 0.00216 |
| B3 | 0.00146 |
| B4 | 0.00202 |
| B5 | 0.00209 |
| B6 | 0.00188 |
| B7 | 0.00142 |
| B8 | 0.00171 |
| B9 | 0.00183 |
| B10 | 0.002 |
| B11 | 0.00198 |
| B12 | 0.00176 |
| B13 | 0.00293 |
| B14 | 0.226 |
| B15 | 0.00228 |
| B16 | 0.00198 |
